# Test results as given in the supplement of paper PMC12217912.
# Some of the results follow. Sequences were assembled here from the parent chain. Inactive controls read about 0.05.
# B1: TEV protease; numbered along this chain (parent)
# chain: MGESLFKGPRDYNPISSSICHLTNESDGHTTSLYGIGFGPFIITNKHLFRRNNGTLVVQSLHGVFKVKDTTTLQQHLVDGRDMIIIRMPKDFPPFPQKLKFREPQREERICLVTTNFQTKSMSSMVSDTSCTFPSGDGIFWKHWIQTKDGQCGSPLVSTRDGFIVGIHSASNFTNTNNYFTSVPKNFMELLTNQEAQQWVSGWRLNADSVLWGGHKVFMVKPEEPFQPVKEATQL
# Variants of: B1
# Test: raw area under fraction-flipped curve 0-4 h after induction (AUC4h, not background-subtracted), DNA-recorder readout of cleavage of the substrate (dimensionless); higher = more cleavage of the substrate by the protease variant
# Settings: temperature: 34 °C; time window: 0-4 h after rhamnose induction
# 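Note: Bxb1 expression induced with 0.2% (w/v) L-rhamnose at OD600 near 0.5, cultures sampled hourly, flipped fraction per protease–substrate barcode pair counted by paired-end Illumina sequencing.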
Variant,area with substrate ENLYFFS,area with substrate ENLYFMS,area with substrate ENLYFES,area with substrate ENLYFGS,area with substrate ENLYFIS,area with substrate ENLYFKS,area with substrate ENLYFWS,area with substrate ENLYFHS,area with substrate ENLYFLS,area with substrate ENLYFRS
MGESLFKGPRDYNPISSSICHLTNESDGHTTSLYGIGFGPFIITNKHLFRRNNGTLVVQSLHGVFKVKDTTTLQQHLVDGRDMIIIRMPKDFPPFPQKLKFREPQREERICLVTTNFQTKSMSSMVSDTSCTFPSGDGIFWKHWIQTKDGQCGSPLVSTRDGFIMGIHSASNFTNTNNYFTSVPKNFMELLTNQEAQQWVSGWRLNADSVLWGGHKVFMVKPEEPFQPVKEATQL [V165M],0.0608,0.0632,,,,,,,,
MGESLFKGPRDYNPISSSICHLTNESDGHTTSLYGIGFGPFIITNKHLFRRNNGTLVVQSLHGVFKVKDTTTLQQHLVDGRDMIIIRMPKDFPPFPQKLKFREPQREERICLVTTNFQTKSMSSMVSDTSCTFPSGDGIFWKHWIQTKDGQCGSPLVSTRDGFIVGIHSASNFTNTNNYFTSVPKNFMELLTNQEAQQWVSGWRLNADSVLWGGHKVFMVKPEEPFQPVKEAPQL [T233P],0.0672,,0.0499,0.0464,0.0289,0.0652,0.059,,,
MGESLFKGPRDYNPISSSICHLTNESDGHTTSLYGIGFGPFIITNKHLFRRNNGTLVVQSLHGVFKVKDTTTLQQHLVDGRDMIIIRMPKDFPPFPQKLKFREPQREERICLVTTNFQTKSMSSMVSDTSCTFPSGDGIFWKHWIQTKDGQCGSPLVSTRDGFIVGIHSASNFTNTNNYFTSVPKNFMELLTNQEAQQWVSGWRLNADSVLWTGHKVFMVKPEEPFQPVKEATQL [G213T],0.0854,0.0604,0.1,,0.0598,0.0641,0.0531,0.0696,0.0597,0.0701
MGESLFKGPRDYNPISSSICHLTNESDGHTTSLYGIGFGPFIITNKHLFRRNNGTLVVQSLHGVFKVKDTTTLQQHLVDGRDMIIIRMPKDFPPFPQKLKFREPQREERICLVTTNFQTKSMSSMVSDTSCTFPSGDGIFWKHWIQTKDGQCGSPLVSTRDGFIVGIHSASNFTNTNNYFTSVPKNFMELLTNQEAQQWVSGWRLNADSVLWGGHKVFMVKLEEPFQPVKEATQL [P222L],,0.062,0.0557,,0.0743,0.0626,,,,0.0559
MGESLFKGPRDYNPISSSICHLTNESDGHTTSLYGIGFGPFIITNKHLFRRNNGTLVVQSLHGVFKVKDTTTLQQHLVDGRDMIIIRMPKDFPPFPQKLKFREPQREERICLVTTNFQTKSMSSMVSDTSCTFPSGDGIFWKHWIQTKDGQCGSPLVSTRDGFIVGIHSASNFTNTNNYFTSVPKNFMELLTNQEAQQWVSGWRLNADSVLWGWHKVFMVKPEEPFQPVKEATQL [G214W],,,0.0461,,0.074,,0.0529,0.0595,,
MGESLFKGPRDYNPISSSICHLTNESDGHTTSLYGIGFGPFIITNKHLFRRNNGTLVVQSLHGVFKVKDTTTLQQHLVDGRDMIIIRMPKDFPPFPQKLKFREPQREERICLVTTTFQTKSMSSMVSDTSCTFPSGDGIFWKHWIQTKDGQCGSPLVSTRDGFIVGIHSASNFTNTNNYFTSVPKNFMELLTNQEAQQWVSGWRLNADSVLWGGHKVFMVKPEEPFQPVKEATQL [N116T],0.0491,,,,,,,,,
MGESLFKGPRDYNPISSSICHLTNESDGHTTSLYGIGFGPFIITNKHLFRRNNGTLVVQSLHGVFKVKDTTTLQQHLVDGRDMIIIRMPKDFPPFPQKLKFREPQREERICLVTTNFQTKSMSSMVSDTSCTFPSGDGIFWKHWIQTKDGQCGSPLVSTRDGFIVGIHSASNFTNTNNYFTSVPKNFMELLTNQEAQQWVSGWRLNADSVLWGGHKVFMVKPEEPFQPVKEATQY [L235Y],0.0598,,0.0291,,0.0603,,,,,
MGESLFKGPRDYNPISSSICHLTNESDGHTTSLYGIGFGPFIITNKHLFRRNNGTLVVQSLHGVFKVKDTTTLQQHLVDGRDMIIIRMPKDFPPFPQKLKFREPQREERICLVTTNFQTKSMSSMVSDTSCTFPSGDGIFWKHWIQTKDGQCGSPLVSTRDGFIVGIHSASNFTNTNNYFTSVPKNFMELLTNQEAQQWVSGWRLNADSVLWGGHKVFMVKPEEPFQPVKEATQC [L235C],0.0791,0.0455,0.0617,,0.0549,0.0854,,,,
MGESLFKGPRDYNPISSSICHLTNESDGHTTSLYGIGFGPFIITNKHLFRRNNGTLVVQSLHGVFKVKDTTTLQQHLVDGRDMIIIRMPKDFPPFPQKLKFREPQREERICLVTTNFQTKSMSSMVSDTSCNFPSGDGIFWKHWIQTKDGQCGSPLVSTRDGFIVGIHSASNFTNTNNYFTSVPKNFMELLTNQEAQQWVSGWRLNADSVLWGGHKVFMVKPEEPFQPVKEATQL [T132N],0.0592,,,,0.0638,0.0252,,0.0486,,0.0544
MGESLFKGPRDYNPISSSICHLTNESDGHTTSLYGIGFGPFIITNKHLFRRNNGTLVVQSLHGVFKVKDTTTLQQHLVDGRDMIIIRMPKDFPPFPQKLKFREPQREERICLVTTNFQTKSMSSMVSDTSCTFPSGDGIFWKHWIQTKDGQCGSPLVSTRDGFIVGIHSFSNFTNTNNYFTSVPKNFMELLTNQEAQQWVSGWRLNADSVLWGGHKVFMVKPEEPFQPVKEATQL [A170F],0.0454,,,,,,,,,
MGESLFKGPRDYNPISSSICHLTNESDGHTTSLYGIGFGPFIITNKHLFRRNNGTLVVQSLHGVFKVKDTTTLQQHLVDGRDMIIIRMPKDFPPFPQKLKFREPQREERICLVTTNFQTKSMSSMVSDTSCTFPSGDGIFWKHWIQTKDGQCGSPYVSTRDGFIVGIHSASNFTNTNNYFTSVPKNFMELLTNQEAQQWVSGWRLNADSVLWGGHKVFMVKPEEPFQPVKEATQL [L156Y],0.0502,0.0554,,0.0627,0.0553,,0.0616,,0.0589,0.0512

# Same assay, conditions: temperature: 34 °C; time window: 0-4 h after rhamnose induction
Variant,area with substrate ENLYFTS,area with substrate ENLYFYS,area with substrate ENLYFPS,area with substrate ENLYFSS,area with substrate ENLYFNS,area with substrate ENLYFVS
MGESLFKGPRDYNPISSSICHLTNESDGHTTSLYGIGFGPFIITNKHLFRRNNGTLVVQSLHGVFKVKDTTTLQQHLVDGRDMIIIRMPKDFPPFPQKLKFREPQREERICLVTTNFQTKSMSSMVSDTSCTFPSGDGIFWKHWIQTKDGQCGSPLVSTRDGFIVGIHSASNFTNTNNYFTSVPKNFMELLTNQEAQQWVSGWRLNADSVLWTGHKVFMVKPEEPFQPVKEATQL [G213T],0.0582,0.0674,,,,
MGESLFKGPRDYNPISSSICHLTNESDGHTTSLYGIGFGPFIITNKHLFRRNNGTLVVQSLHGVFKVKDTTTLQQHLVDGRDMIIIRMPKDFPPFPQKLKFREPQREERICLVTTNFQTKSMSSMVSDTSCTFPSGDGIFWKHWIQTKDGQCGSPLVSTRDGFIVGIHSASNFTNTNNYFTSVPKNFMELLTNQEAQQWVSGWRLNADSVLWGGHKVFMVKLEEPFQPVKEATQL [P222L],,,0.0625,0.0679,,
MGESLFKGPRDYNPISSSICHLTNESDGHTTSLYGIGFGPFIITNKHLFRRNNGTLVVQSLHGVFKVKDTTTLQQHLVDGRDMIIIRMPKDFPPFPQKLKFREPQREERICLVTTTFQTKSMSSMVSDTSCTFPSGDGIFWKHWIQTKDGQCGSPLVSTRDGFIVGIHSASNFTNTNNYFTSVPKNFMELLTNQEAQQWVSGWRLNADSVLWGGHKVFMVKPEEPFQPVKEATQL [N116T],,,0.0572,0.0625,,
MGESLFKGPRDYNPISSSICHLTNESDGHTTSLYGIGFGPFIITNKHLFRRNNGTLVVQSLHGVFKVKDTTTLQQHLVDGRDMIIIRMPKDFPPFPQKLKFREPQREERICLVTTNFQTKSMSSMVSDTSCTFPSGDGIFWKHWIQTKDGQCGSPLVSTRDGFIVGIHSASNFTNTNNYFTSVPKNFMELLTNQEAQQWVSGWRLNADSVLWGGHKVFMVKPEEPFQPVKEATQY [L235Y],,,0.0646,,0.0734,
MGESLFKGPRDYNPISSSICHLTNESDGHTTSLYGIGFGPFIITNKHLFRRNNGTLVVQSLHGVFKVKDTTTLQQHLVDGRDMIIIRMPKDFPPFPQKLKFREPQREERICLVTTNFQTKSMSSMVSDTSCTFPSGDGIFWKHWIQTKDGQCGSPLVSTRDGFIVGIHSASNFTNTNNYFTSVPKNFMELLTNQEAQQWVSGWRLNADSVLWGGHKVFMVKPEEPFQPVKEATQC [L235C],,,,,,0.0144
MGESLFKGPRDYNPISSSICHLTNESDGHTTSLYGIGFGPFIITNKHLFRRNNGTLVVQSLHGVFKVKDTTTLQQHLVDGRDMIIIRMPKDFPPFPQKLKFREPQREERICLVTTNFQTKSMSSMVSDTSCNFPSGDGIFWKHWIQTKDGQCGSPLVSTRDGFIVGIHSASNFTNTNNYFTSVPKNFMELLTNQEAQQWVSGWRLNADSVLWGGHKVFMVKPEEPFQPVKEATQL [T132N],0.0453,0.0542,,,,
MGESLFKGPRDYNPISSSICHLTNESDGHTTSLYGIGFGPFIITNKHLFRRNNGTLVVQSLHGVFKVKDTTTLQQHLVDGRDMIIIRMPKDFPPFPQKLKFREPQREERICLVTTNFQTKSMSSMVSDTSCTFPSGDGIFWKHWIQTKDGQCGSPLVSTRDGFIVGIHSFSNFTNTNNYFTSVPKNFMELLTNQEAQQWVSGWRLNADSVLWGGHKVFMVKPEEPFQPVKEATQL [A170F],,,,,0.0643,
MGESLFKGPRDYNPISSSICHLTNESDGHTTSLYGIGFGPFIITNKHLFRRNNGTLVVQSLHGVFKVKDTTTLQQHLVDGRDMIIIRMPKDFPPFPQKLKFREPQREERICLVTTNFQTKSMSSMVSDTSCTFPSGDGIFWKHWIQTKDGQCGSPYVSTRDGFIVGIHSASNFTNTNNYFTSVPKNFMELLTNQEAQQWVSGWRLNADSVLWGGHKVFMVKPEEPFQPVKEATQL [L156Y],0.0586,0.045,0.0637,0.058,,
